The values below come from ChEMBL document CHEMBL1201862, “PubChem BioAssay data set” (2004).

Where “and” joins values, the source holds several entries; their conditions need not be identical. Equal entries are not always repeated.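 Grown in 96-well plates, cells were treated for 48 hours with each compound at five concentrations. Insufficient inhibition: endpoint recorded as highest concentration tested. Here, GI50 denotes the concentration required for 50% inhibition of growth.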 Calls of active or inactive are those of the source. Cut-off read from the data, not from the text of the source: active = GI50 up to about 1.1 µM and inactive = higher. Bounds are passed on as bounds.

The subject of the test is NCI-H322M. Description: growth of human tumour cells (NCI), 48 h.
For the compound `C[N+]1(C)C2CC(OC(=O)C(CO)c3ccccc3)CC1C1OC12` (stereo unspecified), the GI50 is inactive: > 100 µM.

In the case of `Oc1cc(-c2ccc(Oc3ccccc3)cc2)nc2cc3c(cc12)OCO3`, the GI50 is inactive: > 100 µM.

Consider `CC(C)Cn1cnc2c(SCc3ccc(Cl)cc3Cl)nc(N)nc21`, for which the GI50 was inactive: 86.3 µM.

Take `COC(C)(C)C1=CCC(C)CC1` (stereo unspecified): the GI50 is inactive: > 100 µM.

For `COc1cc(OCc2ccc3nc(OC)c(OC)nc3c2)cc(OC)c1OC`, the GI50 was inactive: > 10 µM.

For the compound `S=C=NC1CCC(c2cc3ccccc3s2)(N2CCCCC2)CC1` (stereo unspecified), the GI50 was inactive: 4.01 µM.

Take `Cc1ccc(/C=C(\NC(=O)c2ccccc2)c2nc3ccccc3[nH]2)cc1`: the GI50 was inactive: > 100 µM.

On to `CC1=C(C(=O)CC(=O)C(=O)Nc2ccc(C)c(C)c2)Sc2ccccc2N1`, for which the GI50 was inactive: > 100 µM.

Turning to `Cc1nc(O)nc(NNCc2ccc(Cl)cc2)c1C(=O)Nc1ccc(Cl)cc1`, the GI50 is inactive: > 100 µM.

On to `Cc1ccc(Cn2c(C)nc3c2C(=O)c2ccccc2C3=O)cc1`, for which the GI50 is inactive: 11.2 µM.

As for `Cc1c(/C=N/NC(=S)Nc2ccc(Cl)cc2)c(=O)n(-c2ccccc2)n1C`, the GI50 is inactive: 54.5 µM.

Take `O=C(O)C1CCCCC1c1c2ccc(=O)cc-2oc2cc(O)ccc12` (stereo unspecified): the GI50 is inactive: 30.2 µM.

Consider `N#C/C=C1\C=CC(O)C(O)C1OC1OC(CO)C(O)C(O)C1O` (stereo unspecified), for which the GI50 is inactive: > 100 µM.

Consider `N#CCCN(CCN(CCN(C(=O)Nc1ccccc1)c1ccccc1)C(=O)Nc1ccccc1)C(=O)Nc1ccccc1`, for which the GI50 is inactive: > 100 µM.

With `Cc1cc(Cl)cc2c1NC(=O)C2(O)C(C(=O)c1ccccc1)c1ccccc1` (stereo unspecified), the GI50 was inactive: > 100 µM and inactive: 86.1 µM.

With `O=C1Oc2ccccc2C(=O)/C1=C\Nc1nc(-c2ccc(O)c(O)c2)cs1`, the GI50 is inactive: 13.3 µM.

With `CSc1c(C#N)c2n(c3ccccc3[n+]2C)c2ncccc12`, the GI50 is inactive: 35.2 µM.

`c1ccc(-c2sc(-c3ccccc3)c3c2C(c2ccccc2)c2c(-c4ccccc4)sc(-c4ccccc4)c2C3c2ccccc2)cc1` (stereo unspecified): the GI50 is inactive: > 100 µM.

As to `Cn1cnc([N+](=O)[O-])c1Sc1nnnn1C`, the GI50 was inactive: 48.9 µM.

For the compound `O=C(CC1=Nc2nnc(CCCCCCCc3nnc4n3C(=O)C(CC(=O)c3ccccc3)=N4)n2C1=O)c1ccccc1`, the GI50 was inactive: > 100 µM.

Consider `CC1(C)[C@@H](Cn2nnc3c(N)ncnc32)CC[C@@]1(C)CO`, for which the GI50 was inactive: > 100 µM.

Turning to `COc1ccc(/C=C2\N=C(c3ccccc3)OC2=O)cc1OC(C)=O`, the GI50 was inactive: > 100 µM.

On to `COC(=O)[C@H](C)N(C)C(=O)[C@H](C)N1[C@@H](c2ccccc2)COC1(C)C`, for which the GI50 is inactive: > 100 µM.

As for `COc1cc2c(c(OC(C)=O)c1OC(C)=O)-c1ccc(SC)c(=O)cc1C(NC(C)=O)CC2` (stereo unspecified), the GI50 is inactive: 2.86 µM.

Turning to `O=C(CNc1ccccc1[N+](=O)[O-])Nn1cnc2ccc(S(=O)(=O)Nc3ccccc3[N+](=O)[O-])cc2c1=O`, the GI50 is inactive: > 100 µM.

Turning to `Nc1nc2ncc(SCc3ccc(C(=O)NC(CCC(=O)O)C(=O)O)cc3)cc2c(=O)[nH]1` (stereo unspecified), the GI50 is inactive: > 100 µM.

As for `C[N+](C)(CCNC(=O)c1cccc2cc3ccccc3nc12)Cc1ccc([N+](=O)[O-])s1`, the GI50 is inactive: > 25 µM.

As for `Cc1ccc2nc(N)[nH]c(=O)c2c1Sc1ccncc1`, the GI50 is inactive: > 100 µM.

On to `CC1=CCC[C@@H]2[C@@](C)(Cc3cc(O)ccc3O)[C@H](C)CC[C@@]12C`, for which the GI50 is inactive: 7.16 µM.

In the case of `N#C/C(=C/c1ccc([N+](=O)[O-])o1)c1ccccc1`, the GI50 was inactive: > 100 µM.

For `COc1ccc(OCC(C)(C)O)cc1`, the GI50 was inactive: > 100 µM.

With `CCOC(=O)c1c(N2CCOCC2)[nH]c(=O)c(C(c2c(Cl)cccc2Cl)c2c(O)c(C(=O)OCC)c(N3CCOCC3)[nH]c2=O)c1O`, the GI50 was inactive: 18.9 µM.

Consider `O=C(NC1C(=O)NC(CCc2ccccc2)NC1=O)OCc1ccccc1` (stereo unspecified), for which the GI50 was inactive: > 100 µM.

Take `CC(=O)c1c2c(cc3c1CC1(C3)Cc3cc4c(c(C(=O)O)c3C1)CCC4)CCC2` (stereo unspecified): the GI50 was inactive: 29.8 µM.

As for `CC(=O)NC(CCCN)C(=O)NCc1ccccc1` (stereo unspecified), the GI50 is inactive: > 100 µM.

`NC(=O)NC(=O)C1CCC(=O)N1S(=O)(=O)c1ccc(Cl)cc1` (stereo unspecified): the GI50 is inactive: > 100 µM.

On to `CC(C)(CO)NC1=C(Cl)C(=O)c2c(O)ccc(O)c2C1=O`, for which the GI50 was inactive: 1.33 µM.

Turning to `O/N=C(/C(Cl)=C(Cl)Cl)C(Cl)Cl`, the GI50 was inactive: 26 µM.

In the case of `Cc1ccc(OCC2OC(n3cnc4c(Cl)nc(Cl)nc43)CC2Oc2ccc(C)cc2)cc1` (stereo unspecified), the GI50 was inactive: 2.85 µM.

With `O=c1c2nc(-c3ccccc3)oc2n(-c2ccccc2)c(=O)n1-c1ccccc1`, the GI50 was inactive: 39.6 µM.

With `C/C(=C1/N=C(c2cc([N+](=O)[O-])ccc2Cl)N(c2ccc(Br)cc2)C1=O)c1cc2ccccc2oc1=O`, the GI50 is inactive: 40.6 µM.

Consider `COC(=O)c1cc(NC(=O)Cc2c[nH]c3ccccc23)cn1C`, for which the GI50 is inactive: > 100 µM.

On to `CN(C)C(=S)N/N=C\C=N/NC(=S)N(C)C`, for which the GI50 was active: 0.457 µM.

Take `Nc1ncnc2c1ncn2C1OC(COC2C(CO)OC(OC(C(=O)O)C(O)C(OP(=O)(O)O)C(O)C(=O)O)C(O)C2O)C(O)C1O` (stereo unspecified): the GI50 was inactive: > 100 µM.

Take `COc1ccc(C2OC[C@H]3O[C@@H](OCc4ccccc4)[C@H](O)[C@@H](O)[C@@H]3O2)cc1` (stereo partly specified): the GI50 was inactive: > 100 µM.

Take `CS(=O)(=O)OCCN1CCC2(CC1)SSC1(CCN(CCOS(C)(=O)=O)CC1)S2`: the GI50 is inactive: 39.4 µM.

`CCC1(CC)C(=O)N(C(=O)c2cc(OC)c(OC)c(OC)c2)N(C(=O)c2cc(OC)c(OC)c(OC)c2)C1=O`: the GI50 is inactive: > 50 µM.

In the case of `Cn1c(=O)c2nc3sc4c(n3c2n(C)c1=O)C(=O)c1ccccc1C4=O`, the GI50 is inactive: > 45.1 µM.

Consider `CC(=O)Oc1ccc(-c2nnc(-c3ccc(OC(C)=O)cc3)nn2)cc1`, for which the GI50 was inactive: > 100 µM.

In the case of `NC(CCOCCP(=O)(O)CCOCCC(N)C(=O)O)C(=O)O` (stereo unspecified), the GI50 was inactive: > 100 µM.

On to `CC(C#N)c1cn(S(=O)(=O)c2ccccc2)c2ccccc12` (stereo unspecified), for which the GI50 is inactive: > 100 µM.

In the case of `CCOC(=O)C(C)c1nc2cc(F)c(N3CCOCC3)cc2[nH]c1=O` (stereo unspecified), the GI50 was inactive: 65.9 µM.

Consider `O=P(O)(O)c1ccc2c(c1)OCCOCCOCCOCCO2`, for which the GI50 is inactive: > 100 µM.

For the compound `COCC(OC)C(CC=C(C#N)C#N)OC` (stereo unspecified), the GI50 was inactive: > 100 µM.

For the compound `CN(C)C(=O)OC1C(=O)N(C)c2ccc(Cl)cc2C2(c3ccccc3)N1C2(Cl)Cl` (stereo unspecified), the GI50 was inactive: > 100 µM.

As to `CCOC(=O)c1[nH]c2nc(SC)nc(NC)c2c1N`, the GI50 was inactive: > 100 µM.

For the compound `COc1ccc(/C(Cl)=C(\C=O)c2ccc(Cl)cc2)cc1`, the GI50 is inactive: 3.4 µM.

With `CC(C)C(C=O)C(O)(C(F)(F)F)C(F)(F)F` (stereo unspecified), the GI50 was inactive: > 100 µM.

Regarding `C[C@@]12C[C@@H](c3ccccc3O1)N1CCSC1=N2`, the GI50 is inactive: > 100 µM.

On to `COc1c2c(cc3oc(C)cc(=O)c13)OC(=N)C(C(N)=O)C2CC(=O)c1ccc(N)cc1` (stereo unspecified), for which the GI50 was inactive: 53.1 µM.

For `O=C1CSC(C(/N=N/c2ccccc2)=C2Nc3ccccc3N2)=N1`, the GI50 was inactive: 42 µM.

Take `COc1cc(OC)c(-c2ccc(OCc3ccccc3)c3c(OC)cc(C)cc23)c2c1C(C)=N[C@H](C)C2`: the GI50 is inactive: 2.93 µM.

`COc1cc(/C=C/C=C2\CC/C(=C\C=C\c3ccc(O)c(OC)c3)C2=O)ccc1O`: the GI50 was inactive: > 100 µM.

Turning to `CCCc1nc(Cl)nc(Cl)c1Cl`, the GI50 was inactive: 1.29 µM.

For `CCCCOc1ccc(S(=O)(=O)/N=C(\NN)Nc2ccc(Cl)cc2)cc1`, the GI50 was inactive: 36.2 µM.

As to `Cc1cccc(N(CCC#N)S(=O)(=O)c2ccccc2)c1`, the GI50 is inactive: > 100 µM.

As for `COc1cc(Oc2nc3c(N)cc(C(F)(F)F)cc3nc2-c2ccccc2)cc(OC)c1OC`, the GI50 is inactive: 6.92 µM.

For `CCOC(=O)CC1(C(=O)OCC)c2[nH]c3ccccc3c2CCN1Cc1ccccc1` (stereo unspecified), the GI50 is inactive: 31.4 µM.

Turning to `CCOP(=O)(OCC)C1=NC=CC=CC1n1c(-c2ccccc2)nn(CC)c1=O` (stereo unspecified), the GI50 was inactive: > 100 µM.

`CC1=C(C(=O)NCc2ccccc2)C(c2ccc(N(C)C)cc2)C(C(=O)NCc2ccccc2)=C(C)N1`: the GI50 was inactive: > 100 µM.

In the case of `CC/C(Cl)=N\OC(=O)Nc1ccc(OC)c(C)c1`, the GI50 is inactive: 45.4 µM.

As for `O=C1O[C@H](c2ccc3c(c2)OCO3)[C@H]2CO[C@@H](c3ccc4c(c3)OCO4)[C@@H]12`, the GI50 is inactive: > 100 µM.

Turning to `Cc1ccc(C2=Nc3c(N)nc(N)nc3NC(c3ccccc3)C2)cc1` (stereo unspecified), the GI50 is inactive: 15.7 µM.

With `CCC(=O)N(c1ccccc1)C(C)CN1CCC(O)(c2ccccc2)CC1` (stereo unspecified), the GI50 is inactive: > 100 µM.

Consider `CC1(C)/C(=N\Nc2ccc([N+](=O)[O-])cc2[N+](=O)[O-])C2CCC1C2` (stereo unspecified), for which the GI50 was inactive: 8.83 µM.

For the compound `Cc1cc(C)c2c(c1)C(=O)C1(C2)Cc2c(ccc(C)c2C)C1=O` (stereo unspecified), the GI50 was inactive: > 100 µM.

Regarding `COc1ccc(C(CC(=O)c2ccc3c(c2)OCO3)c2c(O)oc3ccccc3c2=O)cc1OC` (stereo unspecified), the GI50 is inactive: 76.4 µM.

Regarding `O=S1(=O)C[C@@H](O)[C@H](O)CS1`, the GI50 is inactive: > 100 µM.

Consider `CCC(COC(=O)CC[C@@H](NC(=O)C(C)NC(=O)C(C)OC1C(O)C(CO)OC(OCc2ccccc2)C1NC(C)=O)C(N)=O)NC1c2ccccc2Nc2cccc([N+](=O)[O-])c21` (stereo partly specified), for which the GI50 is inactive: > 100 µM.

In the case of `CC(C)(C)c1ccc(S(=O)(=O)N2C(c3cccc(C4CC[C@@H](C(=O)O)N4S(=O)(=O)c4ccc(C(C)(C)C)cc4)c3)CC[C@H]2C(=O)O)cc1` (stereo partly specified), the GI50 is inactive: 57.9 µM.

As to `COc1ccccc1/C=C\c1cc(OC)c(OC)c(OC)c1`, the GI50 is inactive: 63.5 µM.
